In PubChem BioAssay AID463173 (ICCB-Longwood Screening Facility, Harvard Medical School, 2010):
Screen size: about 52,000 compounds; about 1,700 (3.3%) were called active. No stated cut-off is given here; in the data, active means survival mostly below about 52% (no sharp cut-off); inactive means mostly above about 56%. This is one part of the list.

These molecules were tested on Wild type (assay: growth inhibition of S. aureus wild type versus tarO mutant, primary screen, teichoic acid synthesis inhibitors, RN4220, OD600 (AID 463173)). Conditions: S. aureus RN4220 wild type/DeltatarO growth, OD600, 18 h, active compounds read low, screened at 18.75 µg/mL (by protocol).

Q: For CCc1cccc(C)c1Nc1c(-c2cccc(O)c2)nc2cnccn12, which survival is on record?
A: inactive: 90%

Q: Which survival does the source give for CCOC(=O)C1=C(CN2CCN(c3ccccc3F)CC2)NC(=O)NC1c1ccc(OC)cc1 (configuration not stated) here?
A: inactive: 67%

Q: For COC(=O)CSc1ccc2nnc(CCNS(=O)(=O)c3ccc(C)cc3)n2n1, which survival is on record?
A: inactive: 87%

Q: COc1ccccc1CNC(=O)Cn1c(-c2cccs2)cc2cc(F)ccc21 was tested. Which survival did it give?
A: inactive: 84%

Q: How did the survival turn out when CCOc1ccccc1NC(=O)Cn1nc2c3cc(F)ccc3n(Cc3cccc(C)c3)cc-2c1=O was run?
A: inactive: 81%

Q: With COc1ccc(CCNC(=O)c2cc(-c3ccc(Cl)cc3)on2)cc1OC as the molecule, how does the survival read?
A: inactive: 82%

Q: With COc1cccc(NC(=O)CCc2nc(-c3cc(OC)c(OC)c(OC)c3)no2)c1 as the molecule, how does the survival read?
A: inactive: 84%

Q: COc1cc2c(C(=O)N3CCN(c4ccc(C)cc4)C(C)C3)cn(CC(C)C)c(=O)c2cc1OC (configuration not stated) was tested. Which survival did it give?
A: inactive: 71%

Q: Cc1nc2ccccn2c(=O)c1NC(=O)c1ccccc1Cl was tested. Which survival did it give?
A: inactive: 129%

Q: For CCOC(=O)c1ccc(NC(=O)c2cc3c(=O)n(C)c4ccccc4c3n2C)cc1, which survival is on record?
A: inactive: 86%

Q: How did the survival turn out when O=C(N/N=C/c1ccc(OC(=O)c2ccco2)cc1)c1ccccn1 was run?
A: inactive: 103%

Q: Cc1ccc(C)c(NC(=O)C(=O)NCCc2csc(-c3cccc(F)c3)n2)c1 was tested. Which survival did it give?
A: inactive: 72%

Q: How did the survival turn out when Cn1c(=O)cc(SCC(=O)Nc2cccc(C#N)c2)c2ccc(Cl)cc21 was run?
A: inactive: 80%

Q: Which survival does the source give for COc1ccc(N2CCN(C(=O)Cc3noc4ccc(C)cc34)CC2)cc1 here?
A: inactive: 76%

Q: For CCc1cc(S(=O)(=O)n2ccnc2)ccc1OC, which survival is on record?
A: inactive: 93%

Q: How did the survival turn out when Cc1ccc(CN2CCc3nc(N4CCN(C)CC4)ncc3C2)cc1 was run?
A: inactive: 87%

Q: How did the survival turn out when O=C(CN1C2=NCCCN2c2ccccc21)c1cccs1 was run?
A: inactive: 105%

Q: For CCc1ccc(NC(=O)Cn2ccn(-c3cccc(Cl)c3)c(=O)c2=O)cc1, which survival is on record?
A: inactive: 87%

Q: Which survival does the source give for COc1ccc(C(=O)N2CCC(c3ccncc3)CC2)cc1OC here?
A: active: -6%

Q: How did the survival turn out when Cc1ccc(C)c(N2CCN(C(=O)c3ccc4c(c3)c(C)c(C)n4C)CC2)c1 was run?
A: inactive: 102%

Q: For CCOc1ccccc1C1CC(=O)NC(C)=C1C(=O)OCc1ccc(C)cc1 (configuration not stated), which survival is on record?
A: inactive: 89%

Q: How did the survival turn out when Cc1nc2sccn2c(=O)c1S(=O)(=O)NCc1ccccc1 was run?
A: inactive: 73%

Q: COc1ccc(Nc2nnc(-c3ccc(C)c(S(=O)(=O)N4CCN(C)CC4)c3)c3ccccc23)cc1 was tested. Which survival did it give?
A: inactive: 74%

Q: COC(=O)c1ccc(OC)c(CN2CCCN(Cc3ccc(C)cc3)S2(=O)=O)c1 was tested. Which survival did it give?
A: active: -3%

Q: For COc1cc2c(cc1OC)C(COc1ccc3c(C)cc(=O)oc3c1)N(C(=O)c1ccc(C)c(C)c1)CC2 (configuration not stated), which survival is on record?
A: inactive: 72%

Q: Which survival does the source give for COc1ccc(Cl)cc1C(=O)NCC(c1ccc(N(C)C)cc1)N1CCOCC1 (configuration not stated) here?
A: inactive: 90%

Q: Which survival does the source give for Cc1oc2c(c1C(=O)Nc1ccc(Cl)cc1F)C1=NCCN1C=N2 here?
A: inactive: 93%

Q: For O=C(Nc1ccc2ncccc2c1)c1ccccc1, which survival is on record?
A: inactive: 87%

Q: For Cc1cccc(C)c1OCC(=O)N(Cc1ccc(Cl)cc1)CC1CCCO1 (configuration not stated), which survival is on record?
A: inactive: 79%

Q: CCCN(Cc1cccs1)C(=O)Nc1ccccc1C was tested. Which survival did it give?
A: inactive: 92%

Q: How did the survival turn out when CC1CCCN(c2csc3ccccc3c2=O)C1 (configuration not stated) was run?
A: inactive: 97%

Q: COc1ccc(N2C(=O)CC(N3CCCCC3C)C2=O)cc1 (configuration not stated) was tested. Which survival did it give?
A: inactive: 97%

Q: For Cn1c(=O)c2c(nc(NCCc3ccccc3)n2Cc2ccc(Cl)c(Cl)c2)n(C)c1=O, which survival is on record?
A: inactive: 83%

Q: With CC(C)c1nn2c(=O)cc(COC(=O)c3ccccc3NC(=O)c3cccs3)nc2s1 as the molecule, how does the survival read?
A: inactive: 83%

Q: CCOc1ccc(N(Cc2cc3cc(C)ccc3[nH]c2=O)C(=O)c2cccc(Cl)c2)cc1 was tested. Which survival did it give?
A: inactive: 88%

Q: With COc1ccc(S(=O)(=O)NCCc2cn3ccsc3n2)cc1OC as the molecule, how does the survival read?
A: active: -3%

Q: O=C(O)CCCC1OC(CCCC(=O)O)OC(CCCC(=O)O)O1 (configuration not stated) was tested. Which survival did it give?
A: inactive: 110%

Q: Which survival does the source give for CCOC(=O)C1CCN(CCC(=O)Nc2ccccc2Cl)CC1 here?
A: inactive: 138%

Q: How did the survival turn out when CCn1c2ccccc2c2nnc(N3CCN(c4cccc(C)c4C)CC3)nc21 was run?
A: inactive: 88%

Q: How did the survival turn out when O=C(NCCCN1CCOCC1)c1ccc2c(c1)N(Cc1ccccc1)C(=O)c1ccccc1S2 was run?
A: inactive: 88%

Q: Which survival does the source give for Cc1ccc(C)c(CN2CCC(CNC(=O)Cn3ncc4c([nH]c5ccccc54)c3=O)CC2)c1 here?
A: inactive: 79%

Q: How did the survival turn out when CCOc1ccc(NC(=O)NC(C)c2c(-n3cccc3)sc(C)c2C)cc1 (configuration not stated) was run?
A: inactive: 85%

Q: With CCOC(=O)CSc1nc2sc3c(c2c(=O)n1Cc1ccccc1)CC(C)CC3 (configuration not stated) as the molecule, how does the survival read?
A: inactive: 68%

Q: For Cc1ccc(-n2ncc3c(NCCc4ccccc4)ncnc32)cc1C, which survival is on record?
A: inactive: 111%

Q: How did the survival turn out when CCOc1ccccc1CNC(=O)CN1C(=O)CCCc2ccccc21 was run?
A: inactive: 93%

Q: How did the survival turn out when N#Cc1c(SCC(=O)Nc2nccs2)nc(N2CCOCC2)c2c1CCCC2 was run?
A: inactive: 113%

Q: Which survival does the source give for Cc1cccc(OCCCCn2nnc3sc4c(c3c2=O)CCC(C)C4)c1 (configuration not stated) here?
A: inactive: 84%

Q: With O=C(Cn1nc(N2CCN(c3ccccc3)CC2)ccc1=O)NCc1cccc(Cl)c1 as the molecule, how does the survival read?
A: inactive: 129%

Q: Cc1nc2nc(SCC(=O)NCc3ccccc3)nn2c(C)c1Cc1ccccc1Cl was tested. Which survival did it give?
A: inactive: 128%

Q: For O=C(COc1ccccc1)Nc1ccc(C(=O)OCc2cc(=O)n3nc(C4CC4)sc3n2)cc1, which survival is on record?
A: inactive: 64%

Q: Cc1ccc(OCCSc2nc3ccc(NC(=O)COc4ccc(F)cc4)cc3s2)cc1 was tested. Which survival did it give?
A: inactive: 95%

Q: CCN(CC)CCNC(=O)C1CCN(S(=O)(=O)c2c(C)noc2/C=C/c2ccccc2F)CC1 was tested. Which survival did it give?
A: inactive: 102%

Q: For COc1ccc(-n2c(/C=C/c3cc(OC)c(OC)cc3OC)nc3cc4ccccc4cc3c2=O)cc1Cl, which survival is on record?
A: inactive: 115%

Q: With CCc1cccc(C)c1NC(=O)CN1CCCN(Cc2ccc(C)cc2)S1(=O)=O as the molecule, how does the survival read?
A: active: 0%

Q: Which survival does the source give for COc1ccc(-c2c(C)nn3c(C(F)(F)F)cc(-c4ccc(Br)cc4)nc23)cc1 here?
A: inactive: 96%

Q: For O=C(Cc1cccs1)NC1CC(=O)N(c2ccccc2)C1 (configuration not stated), which survival is on record?
A: inactive: 78%

Q: With CCOC(=O)c1cc(-c2ccc(F)cc2)n(CC(=O)NC2CCCCC2)c1C as the molecule, how does the survival read?
A: inactive: 65%

Q: With Cc1cc(C)n2c(Nc3c(C)cccc3C)c(-c3ccsc3)nc2n1 as the molecule, how does the survival read?
A: inactive: 76%

Q: O=C(CN1CCCN(Cc2ccccc2Cl)S1(=O)=O)Nc1ccc2c(c1)OCCO2 was tested. Which survival did it give?
A: inactive: 60%

Q: With CCOc1ccc(-c2ccc(NS(=O)(=O)c3cc(C)c(C)cc3C)cc2)nn1 as the molecule, how does the survival read?
A: inactive: 78%

Q: For CCCOc1ccc(/C=N/NC(=O)CN2CCCCC2)cc1, which survival is on record?
A: inactive: 103%

Q: How did the survival turn out when CCN(C(=O)COc1cc(=O)n(C)c2ccccc12)c1cccc(C(F)(F)F)c1 was run?
A: inactive: 72%

Q: How did the survival turn out when Cc1ccccc1CN1CCc2nc(Nc3ccc4c(c3)OCCO4)ncc2C1 was run?
A: inactive: 93%

Q: How did the survival turn out when O=C(O)Cn1c2ccccc2c2n[nH]c(=S)nc21 was run?
A: inactive: 106%

Q: For O=C(c1cc2c(=O)[nH]c3ccccc3c2s1)N1CCN(c2ccc(F)cc2)CC1, which survival is on record?
A: inactive: 61%

Q: Which survival does the source give for CC(NC(=O)CCn1c(=O)c2cccn2c2ccc(F)cc21)c1ccccc1 (configuration not stated) here?
A: inactive: 97%

Q: With CCOc1ccc(C(=O)Nc2ccc(-c3nc4cc(CC)ccc4o3)cc2)cc1 as the molecule, how does the survival read?
A: inactive: 79%

Q: With COc1cccc(NC(=O)c2oc3ccccc3c2NC(=O)C23CC4CC(CC(C4)C2)C3)c1 as the molecule, how does the survival read?
A: inactive: 73%

Q: COc1ccc(CN2COc3ccc4c(C)cc(=O)oc4c3C2)cc1 was tested. Which survival did it give?
A: inactive: 72%

Q: Which survival does the source give for COc1cccc2c1Oc1nc(-c3ccccc3)nc(SCC(=O)N3CCCCC3)c1C2 here?
A: inactive: 113%

Q: How did the survival turn out when CCN(CC)C(=O)CSc1nc2ccccc2c(=O)n1CC was run?
A: inactive: 107%

Q: Which survival does the source give for CCn1c2ccccc2c2cc(C3C(C#N)=C(N)Oc4n[nH]c(C(C)C)c43)ccc21 (configuration not stated) here?
A: inactive: 82%

Q: COc1ccccc1NC(=O)Cn1c(=O)n(Cc2ccccc2)c(=O)c2ccccc21 was tested. Which survival did it give?
A: inactive: 64%

Q: How did the survival turn out when COC(=O)c1ccc(NC(=O)Nc2nnc(N(C)C3CCCCC3)s2)cc1 was run?
A: inactive: 86%

Q: How did the survival turn out when CCCOc1ccc(Nc2nc(SC)ncc2C(=O)OCC)cc1 was run?
A: inactive: 86%

Q: O=C(CCn1c(=O)c2cccn2c2ccc(F)cc21)NCCc1ccccc1Cl was tested. Which survival did it give?
A: inactive: 60%

Q: For Cc1coc2c(C)c3oc(=O)c(CC(=O)N4CCCCC4)c(C)c3cc12, which survival is on record?
A: inactive: 83%

Q: For COc1ccc(-c2nc3nc(C)cc(Nc4ccc(C(C)=O)cc4)n3n2)cc1, which survival is on record?
A: inactive: 92%

Q: How did the survival turn out when Cc1cc(C)cc(-n2c(SCC(=O)Nc3nnc(C)s3)nc3c([nH]c4ccccc43)c2=O)c1 was run?
A: inactive: 74%

Q: COC(=O)c1ccc(NC(=O)Cc2coc3cc(C)ccc23)cc1 was tested. Which survival did it give?
A: inactive: 106%

Q: For COC(=O)CSc1nnc2n1C(C)(C)Cc1ccccc1-2, which survival is on record?
A: inactive: 99%

Q: How did the survival turn out when COc1ccccc1-c1ccnc2[nH]n(-c3ccccc3)c(=O)c12 was run?
A: inactive: 62%

Q: CCOc1ccc(C2C(=O)N(C3CCCCCC3)CC(=O)N2CCc2ccccc2)cc1OC (configuration not stated) was tested. Which survival did it give?
A: inactive: 75%

Q: With COc1ccc(Cn2ccnc2SCC(=O)NCc2ccccc2)cc1 as the molecule, how does the survival read?
A: inactive: 72%

Q: Which survival does the source give for CCC1CCCCN1C(=O)c1nn(-c2ccc(C)cc2)c(=O)c2c1c1ccccc1n2C (configuration not stated) here?
A: inactive: 86%

Q: How did the survival turn out when CCOc1ccc(CCNC(=O)c2cnc3sc(N4CCOCC4)nn3c2=O)cc1 was run?
A: inactive: 80%

Q: With Cc1ccc(C)c(S(=O)(=O)NCC(c2ccco2)S(=O)(=O)c2ccc(F)cc2)c1 (configuration not stated) as the molecule, how does the survival read?
A: inactive: 130%

Q: With COc1cccc(C2C3=C(CCCC3=O)N(C)C3=C2C(=O)CCC3)c1 as the molecule, how does the survival read?
A: inactive: 107%

Q: For Cc1cccc(C=Nc2ccc(-c3nc4ccccc4o3)cc2)c1O, which survival is on record?
A: inactive: 122%

Q: With CCOc1ccc(C(=O)Nc2ccc(S(=O)(=O)N3CCCCC3c3cccnc3)cc2)cc1 (configuration not stated) as the molecule, how does the survival read?
A: inactive: 73%

Q: Which survival does the source give for CCc1cccc(C)c1NC(=O)Cn1c(=O)cc(C(F)(F)F)c2c(C)nn(C)c21 here?
A: inactive: 80%

Q: How did the survival turn out when Cc1cccc(N2CCN(c3nc4ccccc4c(=O)n3-c3ccc(Cl)cc3)CC2)c1C was run?
A: inactive: 87%
